Measured values taken from patent publication US12577227B2, “WDR5 inhibitors and modulators” (Vanderbilt University, priority 2019, dated 2026).

These compounds were tested against WDR5 (Homo sapiens, UniProt P61964) (assay: TR-FRET competition assay (MLL peptide binding, displacement of 10mer-Thr-FAM probe)). Details: WDR5-His tag (Δ23, residues 24-334) 2 nM; 10mer-Thr-FAM 150 nM; Tb-anti-HIS 1 nM; 60 minutes room temperature; pH 7.2; read-out: Ki for Inhibition of WDR5 by TR-FRET assay.

| Compound | Ki |
| --- | --- |
| Cc1cc(C)nc(CN2CCOc3c(cc(Cn4ccnc4C)cc3-c3ccccc3C)C2=O)c1 [Example 45, 4-((4,6-Dimethylpyridin-2-yl)methyl)-7-((2-methyl-1H-imidazol-1-yl)methyl)-9-(o-tolyl)-3,4-dihydrobenzo[f][1,4]oxazepin-5(2H)-one] | 0.076 nM |
| Cc1cc(C)nc(CN2CCOc3c(cc(Cn4ccnc4C)cc3-c3cc(C)c(F)cc3C)C2=O)c1 [Example 51, 4-((4,6-Dimethylpyridin-2-yl)methyl)-9-(4-fluoro-2,5-dimethylphenyl)-7-((2-methyl-1H-imidazol-1-yl)methyl)-3,4-dihydrobenzo[f][1,4]oxazepin-5(2H)-one] | < 0.05 nM |
| COc1ccc2nccc(N3CCOc4c(cc(Cn5ccnc5C)cc4-c4cn(C)nc4C(F)(F)F)C3=O)c2c1 [Example 58, 4-(6-Methoxyquinolin-4-yl)-7-((2-methyl-1H-imidazol-1-yl)methyl)-9-(1-methyl-3-(trifluoromethyl)-1H-pyrazol-4-yl)-3,4-dihydrobenzo[f][1,4]oxazepin-5(2H)-one] | 0.063 nM |
| COc1cc(Cn2cnc3c(-c4ccc(F)cc4C)cc(Cn4ccc5ccccc54)cc3c2=O)cc(OC)c1 [Example 4, 6-((1H-Indol-1-yl)methyl)-3-(3,5-dimethoxybenzyl)-8-(4-fluoro-2-methylphenyl)quinazolin-4(3H)-one] | > 33 nM |
| COc1cc(Cn2cnc3c(-c4ccc(F)cc4C)cc(Cc4c[nH]c5ccccc45)cc3c2=O)cc(OC)c1 [Example 2, 6-((1H-Indol-3-yl)methyl)-3-(3,5-dimethoxybenzyl)-8-(4-fluoro-2-methylphenyl)quinazolin-4(3H)-one] | > 33 nM |
| COc1cc(Cn2c(C)nc3c(-c4ccc(F)cc4C)cc(CNC4=NCCN4)cc3c2=O)cc(OC)c1 [Example 21, 6-(((4,5-Dihydro-1H-imidazol-2-yl)amino)methyl)-3-(3,5-dimethoxybenzyl)-8-(4-fluoro-2-methylphenyl)-2-methylquinazolin-4(3H)-one] | 0.067 nM |
| COc1cc(CN2CCOc3c(cc(Cn4ccccc4=N)cc3-c3ccc(F)cc3C)C2=O)cc(OC)c1 [Example 8, 4-(3,5-Dimethoxybenzyl)-9-(4-fluoro-2-methylphenyl)-7-((2-iminopyridin-1(2H)-yl)methyl)-3,4-dihydrobenzo[f][1,4]oxazepin-5(2H)-one] | 2.3 nM |
| Cc1ccnc(CN2C[C@H](C)Oc3c(cc(Cn4ccnc4C)cc3-c3cn(C)nc3C(F)(F)F)C2=O)c1 [Example 39, (S)-2-Methyl-7-((2-methyl-1H-imidazol-1-yl)methyl)-9-(1-methyl-3-(trifluoromethyl)-1H-pyrazol-4-yl)-4-((4-methylpyridin-2-yl)methyl)-3,4-dihydrobenzo[f][1,4]oxazepin-5(2H)-one] | 0.18 nM |
| Cc1cc(C)nc(CN2CCOc3c(cc(Cn4ccnc4C)cc3-c3ccc(F)cc3Cl)C2=O)c1 [Example 48, 9-(2-Chloro-4-fluorophenyl)-4-((4,6-dimethylpyridin-2-yl)methyl)-7-((2-methyl-1H-imidazol-1-yl)methyl)-3,4-dihydrobenzo[f][1,4]oxazepin-5(2H)-one] | < 0.05 nM |
| Cc1cc(C)nc(CN2CCOc3c(cc(Cn4ccnc4C)cc3-c3ccc(F)cc3C)C2=O)c1 [Example 41, 4-((4,6-Dimethylpyridin-2-yl)methyl)-9-(4-fluoro-2-methylphenyl)-7-((2-methyl-1H-imidazol-1-yl)methyl)-3,4-dihydrobenzo[f][1,4]oxazepin-5(2H)-one] | < 0.05 nM |
| COc1cc(CN2CCOc3c(cc(CNc4nocc4C)cc3-c3ccc(F)cc3C)C2=O)cc(OC)c1 [Example 7, 4-(3,5-Dimethoxybenzyl)-9-(4-fluoro-2-methylphenyl)-7-(((4-methylisoxazol-3-yl)amino)methyl)-3,4-dihydrobenzo[f][1,4]oxazepin-5(2H)-one] | > 33 nM |
